# Source: PubChem BioAssay (NCI)
#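 Assay format: 96-well plates, 48-hour exposure. Abbreviation: GI50, concentration required for 50% inhibition of growth. TGI marks complete inhibition of growth.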
# Test system: NCI-H322M lung
# Assay: NCI anticancer screen, dose series, 48 h
Structure (SMILES),TGI,GI50
O=[N+]([O-])c1ccc(N2N=C(c3ccc4ccccc4c3O)CC2c2ccc(Cl)cc2Cl)c([N+](=O)[O-])c1 (stereo unspecified),> 100 µM,–
CC(C)(C)C[P+](C)(C)c1ccccc1,> 100 µM,–
ClC1=C(Cl)C(Cl)=C(Cl)C1=Cc1ccc(Cl)cc1,4.09 µM,1.94 µM
CN(C)CCC(C(=O)C(C)(C)C)c1ccccn1 (stereo unspecified),> 100 µM,–
COc1ccc2[nH]c3c(C)c4cnccc4c(C)c3c2c1,> 10 µM,–
O=C1C=C(Nc2ccccc2C(=O)CC(=O)C(=O)Nc2ccc(Cl)c(Cl)c2)c2ccccc2C1=O,> 100 µM,–
Cn1c2c(cc(-c3ccccc3)c1=O)COc1ccccc1-2,> 100 µM,–
c1ccc2nc3cc4c(cc3nc2c1)NC12CCCCC1CC1=C(CCCC1)N42 (stereo unspecified),> 10 µM,–
Cc1cccnc1CNC1CC(NCc2ncccc2C)CC(NCc2ncccc2C)C1 (stereo unspecified),11.7 µM,3.38 µM
c1cnc2c(c1)Nc1cnncc1S2,> 100 µM,–
COC(=O)c1ccc(NCc2cc(O)ccc2O)cc1O,26.3 µM,–
COc1cnc2c(c1)C(=O)c1c-2n(CCCN2CCN(CCO)CC2)c(=O)c2cc([N+](=O)[O-])ccc12,6.07 µM,2.38 µM
CC(=O)N[C@@H](Cc1ccc(OP(=O)(O)O)cc1)C(=O)N[C@H]1CCC(=O)N2CCC[C@@H](C(=O)NCc3ccc(O)cc3)N2C1=O,> 25 µM,> 25 µM
N#Cc1c(Oc2ccc(F)c(NC(=O)Cc3cccc(C(F)(F)F)c3)c2)ccc2nc(NC(=O)C3CC3)sc12,> 100 µM,1.92 µM
CCOC(=O)CCC(NC(=O)c1ccc(Oc2nc3ccccc3nc2C(=O)OCC)cc1)C(=O)OCC (stereo unspecified),> 100 µM,–
Oc1ccc2ccccc2c1Cc1c(O)ccc2ccccc12,35.7 µM,–

Structure (SMILES),TGI,GI50
CCOC(=O)CNC(=O)C(CSC(=O)N(C)O)NC(=O)CCC(N)C(=O)O (stereo unspecified),> 2000 µM,> 2000 µM
COC(=O)c1cc(C)n(NC(=O)OC(C)(C)C)c1C,> 100 µM,–
O=C1/C(=C\c2c(-c3ccccc3)nn(-c3ccccc3)c2O)C(c2ccccc2)=NN1c1ccccc1,> 100 µM,–
O=C(/C=C/c1cccc(B(O)O)c1)c1cccc(B(O)O)c1,6.86 µM,2 µM
COc1cc(/C=C/C(=O)c2ccc(Nc3nc(Nc4ccccc4)nc(Nc4ccc(Cl)cc4)n3)cc2)cc(OC)c1OC,> 32.5 µM,> 32.5 µM
O=C1N[C@@H]2c3c(Br)sc(Br)c3C(=O)[C@@H]2N1,20.5 µM,–
CCOC(=O)C1(Cc2ccc3ccccc3c2)CCCCCN1 (stereo unspecified),> 100 µM,–
O=C(NNC(=O)c1ccccc1Cl)c1ccccc1O,> 100 µM,–
CC12C(=O)N(CCN)C(=O)C1C1c3ccccc3C2c2ccccc21 (stereo unspecified),> 100 µM,–
O=c1cc(-c2ccccc2Cl)[nH]c2cc3c(cc12)OCO3,> 100 µM,–
COc1ccc(C2C(Cl)C(=O)N2NC(=O)c2ccc(N)cc2)cc1OC (stereo unspecified),27.8 µM,–
CNC(=O)OCCN1c2ccccc2Sc2ccccc21,> 100 µM,–
CCOc1ccc(NC(=O)CCC(=O)NN)cc1,> 100 µM,–
Cc1cc(C)c2[s+]snc2c1,> 100 µM,–
O=P1(O)c2ccccc2CS(=O)(=O)Cc2ccccc21,> 100 µM,–
CC(C)N(C[C@H]1O[C@@H](n2cnc3c(N)ncnc32)[C@H](O)[C@@H]1O)C1CC(CCc2nc3ccc(C(C)(C)C)cc3[nH]2)C1 (stereo partly specified),> 100 µM,> 100 µM
